# Assay results taken from PubChem BioAssay AID1508623 (National Center for Advancing Translational Sciences (NCATS), 2021).
# About 450 (0.94%) of roughly 48,000 compounds were called active. About 19% were inconclusive and are not listed. The call rests on the fitted dose curve; in most records, active means well fitted inhibition curve with a large enough effect; inconclusive means small, poorly fitted or top-dose-only effect; inactive means no such curve, though single readings can be large or run the other way. The list shows a part of the results.
# Test: Primary qHTS for Identification of Small Molecule Inhibitors of Huntingtin Promoter Activity; further: nearly all actives have a fitted effect of over 50% in size
# Settings: HEK293 HTT promoter firefly luciferase reporter (activity 0% = vehicle and -100% = no light), 24 h; series mostly up to 57.5 µM; activity change, negative = inhibition: at the top concentration
# Procedure, shortened: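 Firefly luciferase readout (Dual-Glo, 10 min RT) after 24 h, 37 °C compound exposure (final up to 57.5 uM) of HEK293 reporter cells cultured 24 h beforehand; PTC124 at 50 uM final as control inhibitor; activity scaled vehicle 0%, zero RLU -100%.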
row,Structure (SMILES),"activity change, negative = inhibition"
1,Cc1cccc(CSc2nc3c([nH]c4ccccc43)c(=O)n2C)c1,inactive: -5.75%
2,CC(=O)N1c2ccc(S(=O)(=O)Nc3ccc(C)c(Cl)c3)cc2CC1C (stereo not given),inactive: -30.1%
3,CCOc1ccc(CC(=O)Nc2c(C(=O)c3ccccc3)oc3ccc(Cl)cc23)cc1OCC,inactive: 1.93%
4,COc1cc2c(cc1OC)n(CC(=O)c1cc(C)ccc1C)c(=O)n1nc(CCn3nc(C)cc3C)nc21,inactive: -21%
5,Cc1c(CCNC(=O)c2ccc(C(C)(C)C)cc2)sc2nc(-c3ccc(F)cc3)nn12,inactive: -2.57%
6,CC1=C(C(=O)Nc2cccnc2)C(c2ccc(C)cc2)n2nc(SCc3ccccc3F)nc2N1 (stereo not given),inactive: -3.27%
7,Cc1ccc(NC(=O)C(CC(C)C)N2Cc3ccccc3C2=O)cc1F (stereo not given),inactive: -11.9%
8,CNS(=O)(=O)c1cn(CC(=O)N2CCN(c3ccc(C(C)=O)cc3)CC2)cc1S(=O)(=O)NC,inactive: 2.2%
9,COC(=O)c1ccc(NC(=O)c2cc(S(=O)(=O)N3CCOCC3)cn2C)cc1,inactive: 1.33%
10,Cc1ccccc1OCC(=O)Nc1ccc(S(=O)(=O)N(Cc2ccccc2)c2ccccc2)cc1,inactive: -20.9%
11,CC(=O)Nc1ccc(NS(=O)(=O)c2c(C(=O)N3CCCCCC3)c(C)n(C)c2C)cc1,inactive: 1.72%
12,CN(C)c1ccc(NC(=O)Cn2c(SCc3ccc(F)cc3)nc3ccncc32)cc1,inactive: -5.82%
13,Cc1ccc(C(=O)COC(=O)CCC(=O)Nc2ccc(Oc3ccccc3)cc2)cc1,inactive: 64.8%
14,COc1ccc(Cn2c(=O)c3oc4ccccc4c3n(CC(=O)Nc3c(C)cccc3C)c2=O)cc1,inactive: 5.21%
15,Cc1oc2cc3oc(=O)c(CCC(=O)NCCc4ccccc4F)c(C)c3cc2c1C,inactive: 16.1%
16,Cc1ccc(OCCSc2nnc(-c3cccs3)o2)cc1,inactive: -24.4% [at 11.5 µM]
17,CCC(=O)N1c2ccccc2CC1C(=O)NCc1ccc(CC)cc1 (stereo not given),inactive: -6.99%
18,Cc1cc(C)cc(N(CC(=O)NCCc2ccc(Cl)cc2)S(=O)(=O)c2c(C)noc2C)c1,inactive: -0.783%
19,Cc1ccc2c(c1)c1c(c(=O)n(-c3ccccc3)c(=O)n1Cc1ccccc1C)n2C,inactive: -3.41%
20,CN1CCN(C(=O)c2cnn(-c3ccc(F)cc3F)c2C2CCN(C(=O)OC(C)(C)C)CC2)CC1,inactive: 0.809%
21,COc1ccc(NC(=O)Nc2nnc(N3CCCC3)s2)cc1,inactive: 3.87%
22,CC(=O)c1ccc(S(=O)(=O)NC(=O)NC2CCCCC2)cc1,inactive: 13.1%
23,Cc1ccc2c(=O)cc(C(=O)N(Cc3ccc(C(C)(C)C)cc3)C3CCS(=O)(=O)C3)oc2c1 (stereo not given),inactive: -2.87%
24,O=C(c1cc2c(Cl)nc3ccccc3c2s1)N1CCCCC1,inactive: 2.91%

row,Structure (SMILES),"activity change, negative = inhibition"
1,Oc1ccc(-c2nc3ccc(Cl)cn3c2Nc2ccc(Cl)cc2)cc1,inactive: -12.2%
2,Cc1ccccc1NC(=O)Cn1nc(-c2ccccc2)nc(Cc2ccccc2)c1=O,inactive: -16.8%
3,Cc1ccc(CNS(=O)(=O)c2cnc(N)nc2)cc1,inactive: -7.83%
4,COc1ccc(CNC(=O)CSc2nnc(C)c3c(C)n(-c4ccccc4)nc23)c(OC)c1,inactive: -28%
5,CCc1ccc2ncc3c(-c4ccc(C)cc4)nn(CC(=O)NCc4ccccc4)c3c2c1,inactive: 0%
6,O=C(CSc1nc2ccccc2n1Cc1cccc(F)c1)NCc1ccccc1,inactive: -10.5%
7,CCOC(=O)c1sc2ncn(CC(=O)Nc3ccc(OC)c(Cl)c3)c(=O)c2c1C,inactive: -0.431%
8,COc1ccc(-c2nc3sc(CCNC(=O)C(=O)Nc4ccc(OC)c(OC)c4)c(C)n3n2)cc1,inactive: -8.75%
9,Cc1ccccc1Cn1c2ccccc2c2cnn(CC(=O)NC3CCCCCC3)c(=O)c21,inactive: 0.792%
10,CC(C)CCNC(=O)Cn1nc(N2CCN(c3ccccc3)CC2)ccc1=O,inactive: 10.5%
11,COc1ccc(OC)c(C2C(C(=O)Nc3ccc(C)cc3)=C(C)Nc3nnnn32)c1 (stereo not given),inactive: -14.8%
12,CC[C@@H](C)[C@H](NC(=O)[C@H](CC1CCCCC1)NC(=O)c1ccno1)C(=O)N1CCC2(CCc3ccccc32)CC1,inactive: -9.02%
13,Cc1ccc(NC(=O)c2ccc(CN3CC(=O)N4CCCCC4C3=O)cc2)c(Cl)c1 (stereo not given),inactive: -37.6%
14,CN(CC(=O)Nc1cccc(F)c1)S(=O)(=O)c1ccc2c(c1)n(C)c(=O)c(=O)n2C,inactive: 16.6%
15,CSc1cccc(NC(=O)c2cc3c(COC(C)=O)cnc(C)c3oc2=O)c1,inactive: 0.798%
16,CC(=O)c1cccc(NC(=O)CSc2ncc3c(n2)-c2cc(Cl)ccc2N(Cc2ccccc2)S3(=O)=O)c1,inactive: -16%
17,O=C(CC(c1cccs1)N1Cc2ccccc2C1=O)Nc1ccc(F)cc1 (stereo not given),inactive: -10.2%
18,COc1ccc(S(=O)(=O)NCc2nc(-c3ccccc3)no2)cc1,inactive: -13.7%
19,O=C(CN1C(=O)COc2ccc(S(=O)(=O)N3CCCCCC3)cc21)N1CCN(c2ccc(Cl)cc2)CC1,inactive: -28.5%
20,CCOC(=O)c1ccc(NC(=O)CC(C)n2nc(C)cc2C)cc1 (stereo not given),inactive: 4.76%
21,COc1cc(NC(=O)Cc2noc3ccccc23)cc(OC)c1OC,inactive: -21.9%
22,Cc1cccc(-n2ncc3c(NNC(=O)c4ccccc4Cl)ncnc32)c1,inactive: -26.3%
23,COc1ccc(-c2ccc(=O)n(CC(=O)Nc3cc(OC)ccc3OC)n2)cc1,inactive: -23.6%
24,O=c1[nH]c(C2CCCN(S(=O)(=O)c3ccccc3)C2)nc2c1nnn2Cc1ccccc1Br (stereo not given),inactive: -24.2%

row,Structure (SMILES),"activity change, negative = inhibition"
1,CCOC(=O)c1cccc(NC(=O)Nc2c(C)n(C)n(-c3ccccc3)c2=O)c1,inactive: -16.3%
2,COc1ccc(CNC(=O)c2cc(-c3ccc(Br)s3)nc3ccccc23)cc1,inactive: -8.05%
3,Cc1cccc(C)c1NC(=O)Cn1cc(C(=O)C2CC2)c2ccccc21,inactive: -16.3%
4,CCCCN(CC)CCCNC(=O)c1cn(C)c(=O)c2c1c1ccccc1n2C,inactive: -8.12%
5,CCS(=O)(=O)NCCc1csc2nc(-c3ccc(OC)cc3)nn12,inactive: 4.05%
6,CCc1cnc2c(c1SCc1cc(OC)cc(OC)c1)c(=O)n(C)c(=O)n2C,inactive: -8.73%
7,Cc1ccc(C)c(CN2C(=O)c3ccccc3S(=O)c3ccc(C(=O)N4CCCCC4)cc32)c1 (stereo not given),inactive: -5.29%
8,Cc1ccc(C(=O)C(=O)O)cc1C,inactive: -2.65%
9,CSc1ncc(C(=O)NCc2cccc(C)c2)c(-c2ccccc2)n1,inactive: -18.7%
10,COc1ccccc1/C=C/C(=O)Nc1nc2n(n1)C(c1ccc(F)cc1)C=C(c1ccccc1)N2 (stereo not given),inactive: -24.5%
11,C=CCc1ccccc1OCCSc1nc(-c2ccccc2F)nc2cc(=O)[nH]n12,inactive: -1.07%
12,COc1ccc(C(=O)c2cn(Cc3ccccc3OC)c3cc4c(cc3c2=O)OCO4)cc1,inactive: -0.898%
13,COc1ccc(CNC(=O)Cn2cccc2C(=O)c2ccccc2C)cc1,inactive: 25.2%
14,COC(=O)c1ccc(NC(=O)CC2C(=O)N(c3ccccc3)C(=O)N2Cc2cccs2)cc1 (stereo not given),inactive: -28.3%
15,CCN(CC)C(=O)c1sc2c(c1C)c(=O)n(-c1ccc(OC)cc1OC)c(=O)n2CC(=O)Nc1ccccc1,inactive: -0.567%
16,Cc1cccc(NC(=O)c2c(NC(=O)c3ccccc3)sc3c2CCC3)c1,inactive: 27.4%
17,Cc1cc(C)cc(-n2ccnc2SCC(=O)Nc2ccccc2F)c1,inactive: -30.2%
18,CSc1ccc(CCNC(=O)c2ccc(-n3c(C)cc4c3CCC(C)C4)cc2)cc1 (stereo not given),inactive: 38.1%
19,COc1ccc2c(c1)c(CC(=O)Nc1c(C)cccc1C)c(C)n2C(=O)c1ccc(Cl)cc1,inactive: -4.52%
20,CC(=O)N1CCCC1c1nc2ccccc2n1Cc1cccc(C)c1 (stereo not given),inactive: -5.91%
21,Cc1cc(C)cc(NC(=O)CCn2cnc3ccccc3c2=O)c1,inactive: -17.4%
22,CCOc1ccccc1NC(=O)Cn1c(=O)n(-c2ccc(C)cc2)c(=O)c2c1cnn2C,inactive: -8.08%
23,COc1ccc(NC(=O)c2ccc(NC(=O)CCS(=O)(=O)c3cccs3)cc2)cc1Cl,inactive: -2.03%
24,Cc1ccc(-n2nnnc2SCC(=O)NCCc2ccccc2)cc1C,inactive: 7.93%

row,Structure (SMILES),"activity change, negative = inhibition"
1,CCOc1ccc(N(CC(=O)OC)S(=O)(=O)c2ccc3c(c2)n(C)c(=O)c(=O)n3C)cc1,inactive: -0.246%
2,CCC(C)NC(=O)Cn1c(=O)n(-c2ccc(Cl)cc2)c(=O)c2c3c(sc21)CCCC3 (stereo not given),inactive: -9.63%
3,Cc1ccc(C)c(N2CCN(C(=O)c3c(C)oc4nc(C)nc(N5CCOCC5)c34)CC2)c1,inactive: -17.3%
4,CCCc1nnc(SCc2cc(=O)c3c(C)cc(C)cc3[nH]2)n1C,inactive: -2.32%
5,CCc1nnc(NC(=O)CSc2nccn2Cc2ccc(Cl)cc2)s1,inactive: 5.2%
6,CCCN[C@H]1CCc2nc(N)sc2C1,inactive
7,O=C(NCc1cccc(Cl)c1)c1cnc(N2CCOCC2)c2ccccc12,inactive: -11.2%
8,CCc1ccc(CNC(=O)Cn2nc(C)c3nn(-c4ccc(Cl)cc4)c(C)c3c2=O)cc1,inactive: 0.191%
9,COCCNC(=O)c1ccc2c(c1)ncn2-c1cc(C)ccc1OC,inactive: -3.85%
10,Cn1cccc1-c1cc2n(n1)CCC(=O)N2CCCC(=O)NCc1cccc(Cl)c1,inactive: 7.55%
11,Cc1ccc(C(=O)Nc2cc(-c3cn4cccnc4n3)ccc2C)cc1C,inactive: 0.475%
12,Cc1nnc(NC(=O)CSc2nccn2Cc2ccccc2)s1,inactive: -12.7%
13,CSCCC(NS(=O)(=O)c1ccc2c(c1)oc(=O)n2C)C(=O)NCc1ccc(Cl)cc1 (stereo not given),inactive: -1.49%
14,O=C(Nc1cc(-c2cccc(Cl)c2)nn1-c1ccccc1)c1ccccc1F,inactive: -6.89%
15,CC(C)CCNc1nc(Nc2ccccc2)c2cnn(C)c2n1,inactive: -22.3%
16,NCC[C@H](O)C(=O)N[C@@H]1C[C@H](N)[C@@H](O[C@H]2O[C@H](CN)[C@@H](O)[C@H](O)[C@@H]2O)[C@H](O)[C@@H]1O[C@H]1O[C@H](CO)[C@@H](O)[C@H](N)[C@@H]1O,inactive: -4.09% [at 0.739 µM]
17,O=C(Cc1ccc(Cl)cc1)NCCc1csc2nc(-c3ccccc3F)nn12,inactive: -8.95%
18,CCC(C)(C)NC(=O)C(NS(=O)(=O)c1cccs1)c1ccccc1 (stereo not given),inactive: -18%
19,Cc1cc(F)ccc1Nc1nc2ccc(Cl)cc2n2cnnc12,inactive: -9.73%
20,CCOC(=O)c1ccc(-n2c(CCC(=O)O)ccc2-c2ccccc2)cc1O,inactive: 8.48%
21,CC(CC(=O)Nc1ccc(F)cc1)S(=O)(=O)c1cc2c3c(c1)CCN3C(=O)CC2 (stereo not given),inactive: -15.5%
22,Cc1cc(=O)oc2cc(O)ccc12,inactive
23,COc1ccc(N2CCN(C(=O)C(CC(C)C)NS(=O)(=O)c3ccc4nc(C)sc4c3)CC2)cc1 (stereo not given),inactive: -21.3%
